Laboratory results reported in the RNAGym collection of RNA variant scans (doi:10.7554/elife.90254).
Read counts are not given, so values of variants with three or more changes are uncertain.

B1: LINE1-mini (parent)
chain: GGCAGAGCUCAACACAGCGUGGCAAAGUGGCUGUGGCUAGACUGCC

Variants of: B1
Experiment: self-cleavage, relative activity (ratio to wild type); higher = more cleavage; in vitro, sequencing; the parent is a self-cleaving ribozyme

| Variant | self-cleavage |
| --- | --- |
| G17C U32A G44U | 0.05 |
| G5A A6U A12U G40A | 0.11 |
| U9G C23G C45U | 0.08 |
| U9C G30A C31A | 0.04 |
| G27A U38A C45A | 0.1 |
| C8A C37A C42G | 0 |
| C3U A4U G7U A16C G36C U38G C46A | 0.01 |
| A11G C18U U20A | 0.02 |
| U9A C10U G44A | 0.04 |
| A12G A16C G35A | 0.04 |
| A4G A14U G19U | 0.23 |
| G1A G7A C45U | 1.51 |
| G1A C23G C31G | 0.13 |
| A4G A11C G36C A41U | 0.01 |
| C13A U20C U34A G36C | 0.07 |
| G5U G19A U20G A25U | 0.02 |
| G21C C23G G27A U38A G40U | 0.25 |
| U9C G17A A26U C31A G33A U38A C42U | 0 |
| G5A A39C C45U | 0.07 |
| A6G A14G C23A | 0.01 |
| G2A G5A A16C G44C C45G | 0.08 |
| C13A G21C G44A | 0 |
| U38G A41U C42A | 0 |
| C3U A11U C13U | 0.03 |

| Variant | self-cleavage |
| --- | --- |
| A11C G19U U32G U34C C37A | 0 |
| A11G A41C C42G | 0.04 |
| G7A U32G A39G | 0.11 |
| G1U C15U C45A | 0.09 |
| U9G G33C G44U | 0.03 |
| G1C G35U U38A C42G | 0 |
| U9C G36A G40U | 0.12 |
| A6G A16U G21A A25C U32G G33A | 0.02 |
| C15G A25U G36C A39U U43G | 0 |
| C15U A39C C42U | 0.01 |
| C15G A41G U43C | 0.01 |
| G22U A24U U38G A41C | 0.04 |
| C8G A16U C18A G21A G36U U38A | 0.04 |
| C18A A25C C42G | 0.06 |
| A4U A6U G21U U28G G29U | 0.06 |
| C8G C13G C42U | 0 |
| G5A U9C C23G G27C | 0.03 |
| A6C U20A G27A U38A | 0.13 |
| C3A G27U G29U C42A | 0.43 |
| A11C G30U U43G | 0 |
| G22C C23A G29A U34C G36A | 0.12 |
| G5U G19U C31A C45G | 0.04 |
| C15A C18A A24C U38G | 0 |
| A14C G21C C37G | 0 |

| Variant | self-cleavage |
| --- | --- |
| A6C G27A U32G U34C G36A C45G | 0.01 |
| C13G A14U A16G G40U C46A | 0.02 |
| G5A A12U U20C | 0.03 |
| C3A U9C A14U G21C G27C A41G | 0.04 |
| G5U U9A G29C | 0.06 |
| C3U A6G U32G | 0.1 |
| G7U C18U A25C U38A C42G | 0.05 |
| A4U G17C U20A U28A | 0.07 |
| C13A G33U U38A G40U | 0.04 |
| G5A C15A C18A C31U | 0.04 |
| G22A A26U G29A G33U | 0.36 |
| C13A A14U G17A G19C G21C G36U | 0.01 |
| G7A C37A A39U | 0.31 |
| A4G C8A C10G C46A | 0 |
| A11G A12G C15A G19A U34C G44A | 0 |
| A6C G17C G22A | 0.53 |
| G5C G7C A26U | 0.03 |
| G2A G17C C18A G19C | 1.09 |
| C8A G19U C23U G29U A39G C45U | 0.08 |
| G2U C13U A24C A39C | 0.02 |
| C8U C23G C37U | 0.05 |
| G7C U9C C15U G29A | 0.02 |
| G2C C3A G7C C15A G35C C45A | 0.32 |
| G22C A26U C31A G44A | 0.06 |

| Variant | self-cleavage |
| --- | --- |
| C10A A14C U32C G33U A41U | 0.01 |
| C8A G35C G36U G40C | 0.19 |
| G7A C8G G21A A26U A41G C45A | 0.11 |
| G7A G40C C46G | 0.12 |
| C10A G19U U20C | 0.04 |
| C3A A24C C46U | 0.13 |
| C10A A16G U32G C45G | 0 |
| G2A A12G C13G | 0.09 |
| G1U C10G G27C C46U | 0.01 |
| A6C C8A C31G U34G | 0.17 |
| C8U C10A A11C A12C U20G | 0.02 |
| C13G A26C G30C | 0.05 |
| G22C A24U G29A | 2.37 |
| G1A G5U C18G G33A C46U | 0.07 |
| G17A A24U G35U | 0.05 |
| U20A A25C C31A G35A U38C | 0.04 |
| A11U U32G A41U | 0.02 |
| U32G A39C G44A C45U | 0 |
| U9C A11C G40U | 0 |
| C3U C37G A41G | 0.08 |
| A6G G17U C18U A39C | 0 |
| A14G C15U G17U A39U | 0.06 |
| A12C G29U U32A | 0.01 |
| C13G C15U A26C U32C U43A | 0.02 |

| Variant | self-cleavage |
| --- | --- |
| G2U C15U G30U U32C | 0.04 |
| A11C C13U G44C | 0.06 |
| C18U U20G U32A | 0.02 |
| A26U G29C C37U U43A | 0.18 |
| A16G G21U G35C | 0.01 |
| A25U G35C C42A | 0.02 |
| G7U U32G A39C | 0.13 |
| G17A C23A G30C U34G A41C G44C | 0.02 |
| C10U G19A U34A G40C C45U | 0.03 |
| A4G U28A G44U | 0.06 |
| A16G G21U U32G A39G C42A | 0.03 |
| C13G C31U A41C | 0.05 |
| C3G G35A G40C | 0.02 |
| U9A A16C G22A A26U C31U U34G | 0.03 |
| C13U U28C C42A C45A | 0.02 |
| A4U A12G A26C | 0 |
| C3U A14U C15G G22C C42A | 0 |
| G27A G30A A39C G44C | 0.07 |
| A12G A14C G22U G36U | 0.01 |
| G2C A12G A16C G19C G33A U34A G35A A39C G44C | 0.01 |
| G7C G30A U38A C46G | 0.04 |
| A11G G17U C45U | 0.03 |
| A14G G19U C23U C31G | 0.05 |
| C15A A24U G36U C46U | 0.03 |

| Variant | self-cleavage |
| --- | --- |
| C3G C31A A39G | 0.03 |
| G2C C23U G40A U43G | 0.01 |
| C18G G21A G22C | 0.58 |
| A6U C10U A16U G30U C31A A39C | 0.03 |
| U20C G27C G35A C45G | 0.05 |
| G7C C13A C18A A41C C42U G44C C46A | 0.01 |
| A4U G35U C46U | 0.07 |
| C8G A11C C23U G40A C42U | 0 |
| G2U C15A G19A | 0.02 |
| C8A C10A A12C G36U U38G | 0.01 |
| G22U C23G C31G | 0.13 |
| G33U C37A C45G | 0.04 |
| C10U U32A C42G U43A | 0.02 |
| G21C A25C C37G | 0.01 |
| A12U U20G G21U C31G | 0.01 |
| G1A A4C U9A G35C | 0.04 |
| C10A G17C C18A G19A A25G | 0.04 |
| A6G C10A G22C C42A C45A | 0.01 |
| G1C A11G C15U C23U U28C A39U | 0.01 |
| C10A A11G A25U G27C | 0 |
| A4C G36U U38G | 0.01 |
| A4G G17U G29A | 0.24 |
| A11C C13A C23A A39G C42U | 0 |
| G7U A12U C13G A24U G27A | 0.53 |

| Variant | self-cleavage |
| --- | --- |
| A14G G17A U38A | 0.07 |
| G7U C31U U34G C45A | 0.01 |
| C10G A11G G17A C23A C31G A41U | 0 |
| A6C C10U G22U | 0.03 |
| A6C G19A A24C U43G | 0.01 |
| A6G A12U G35C | 0 |
| C10A C18G U20C | 0.07 |
| C13A G19C C23G | 0.03 |
| G29A G30U G33U C37U | 0.02 |
| A11C G35C C46U | 0.02 |
| G2A A11C U20G U28C C46U | 0.01 |
| U28C G30A G36C | 0.06 |
| G7A G21A U28A U38A | 0.05 |
| C3A U20C U43A | 0.08 |
| G19A G27U A39U | 1.48 |
| A4C A6C A11U C31A G33C G40U | 0 |
| A4U G21C A39C G40U | 0.06 |
| C3U A25C U38G | 0.02 |
| G1U C13U A25C | 0.02 |
| A6U C18A A24G | 0.07 |
| G2U C15U A25G A26C G33C U38A | 0 |
| G1U C15A A16G U20A | 0.03 |
| A6U G7C A12G | 0.11 |
